{"source": "PubChem BioAssay AID1460", "about": "(National Center for Advancing Translational Sciences (NCATS), 2008)", "note": "The whole screen tested about 270,000 compounds, of which about 5,800 (2.1%) were called active. This list was built around the results that the source calls inconclusive (neither active nor inactive); the mix of calls is not that of the screen. Calls follow the shape of the dose curve; as a rule, active = well fitted inhibition curve with a large enough effect; inconclusive = small, poorly fitted or top-dose-only effect; inactive = flat fitted curve, though single readings scatter. Potencies beside an inconclusive call are fits to weak or partial responses and may not hold up. % is scaled to controls: 0 for no effect and ±100 for the full control effect; potency is read from the fitted curve at half-maximal effect; tags tell the direction and shape of the fitted curve."}
{"biological_target": "Microtubule-associated protein tau (Homo sapiens) (UniProt P10636)", "sequence (P10636 whole entry, looked up, the tested form may be a part)": "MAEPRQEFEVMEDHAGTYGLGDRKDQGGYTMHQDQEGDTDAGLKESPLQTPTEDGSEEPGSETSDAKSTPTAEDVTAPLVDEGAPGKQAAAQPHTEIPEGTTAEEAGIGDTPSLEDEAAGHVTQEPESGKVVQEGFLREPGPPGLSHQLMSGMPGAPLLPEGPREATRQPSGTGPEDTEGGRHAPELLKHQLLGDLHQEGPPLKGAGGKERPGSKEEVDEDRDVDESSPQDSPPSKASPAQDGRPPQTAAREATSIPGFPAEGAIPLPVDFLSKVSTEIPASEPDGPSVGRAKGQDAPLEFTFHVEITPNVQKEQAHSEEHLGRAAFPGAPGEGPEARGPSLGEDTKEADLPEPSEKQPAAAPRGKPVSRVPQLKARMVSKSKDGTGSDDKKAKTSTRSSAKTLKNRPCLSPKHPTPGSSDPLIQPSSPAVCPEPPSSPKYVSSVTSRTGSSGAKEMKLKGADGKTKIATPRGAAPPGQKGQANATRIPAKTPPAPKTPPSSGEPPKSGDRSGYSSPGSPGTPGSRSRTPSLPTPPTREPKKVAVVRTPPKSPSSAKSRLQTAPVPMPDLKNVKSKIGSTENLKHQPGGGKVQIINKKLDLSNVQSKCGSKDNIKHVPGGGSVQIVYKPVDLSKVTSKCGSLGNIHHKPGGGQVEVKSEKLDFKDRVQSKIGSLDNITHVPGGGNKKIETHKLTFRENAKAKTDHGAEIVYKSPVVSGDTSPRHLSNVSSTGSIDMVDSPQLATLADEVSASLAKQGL", "assay": "qHTS for Inhibitors of Tau Fibril Formation, Thioflavin T Binding; also: nearly all actives have a fitted effect of over 55% in size", "conditions": "recombinant tau K18 P301L (four-repeat tau fragment), heparin-induced fibrillization, ThT fluorescence; series mostly up to 57.4 µM; activity, negative = inhibition: at the top concentration", "summary_of_the_method": "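Heparin-induced (20 uM) aggregation of recombinant human K18 P301L tau, 15 uM unlabeled with 0.24 uM labeled, pH 7 acetate buffer, 6 hr at 37 C with compound. Fibrils quantified by 30 uM ThT fluorescence after 1 hr ambient incubation.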"}
{"smiles": "COc1ccc2nc(Nc3nc(CSc4ccc(C)cc4)cc(=O)[nH]3)nc(C)c2c1", "Potency": "inconclusive: 2 µM [inhibitor, full curve]"}
{"smiles": "Cc1cc(SCNC(=O)c2ccccc2)nc(C(C)C)n1", "activity, negative = inhibition": "inactive: -15.9%"}
{"smiles": "CCOc1ccc(CNC(=O)c2ccc3c(c2)c(C)c(C)n3C)cc1", "Potency": "inconclusive: 25.1 µM [inhibitor, single point]"}
{"smiles": "CCCN(CCC)C(=O)Cn1c(=O)n(-c2ccc(OC)cc2OC)c(=O)c2c3c(sc21)CCC3", "activity, negative = inhibition": "inactive: -5.62%"}
{"smiles": "O=C(CC1(O)C(=O)Nc2ccccc21)c1ccc(-n2cnnn2)cc1", "note": "(stereo not drawn)", "Potency": "inconclusive: 20 µM [inhibitor, single point]"}
{"smiles": "COC(=O)c1ccc(N2C(=O)CC(N3CCOCC3)C2=O)cc1", "note": "(stereo not drawn)", "activity, negative = inhibition": "inactive: -3.49%"}
{"smiles": "COc1cc(/C=N/NC(=O)/C(=C/c2ccccc2)CCO)ccc1O", "Potency": "inconclusive: 11.2 µM [inhibitor, partial curve]"}
{"smiles": "CCCc1ccc(OCC(=O)Nc2cc(S(=O)(=O)CC)ccc2O)cc1", "Potency": "inconclusive: 39.8 µM [inhibitor, partial curve]"}
{"smiles": "CCOc1ccccc1NC(=O)Cn1c(=O)n(CC(=O)NCc2ccccc2Cl)c(=O)c2sccc21", "activity, negative = inhibition": "inactive: 11.3%"}
{"smiles": "COc1cc(C2C(C(=O)/C=C/c3ccccc3)=C(O)C(=O)N2c2ccccn2)ccc1O", "note": "(stereo not drawn)", "Potency": "inconclusive: 28.2 µM [inhibitor, single point]"}
{"smiles": "COc1ccc(OCC(=O)Nc2ccc(-c3nc4cc(Cl)ccc4o3)cc2)cc1", "Potency": "inconclusive: 1.78 µM [inhibitor, partial curve]"}
{"smiles": "CC(=O)Nc1ccc(S(=O)(=O)Nc2ccc(C)c([N+](=O)[O-])c2)cc1", "activity, negative = inhibition": "inactive: -7.21%"}
{"smiles": "Cc1cccc2c(=O)cc(CSc3ccccc3NC(=O)C(C)C)[nH]c12", "activity, negative = inhibition": "inactive: -2.42%"}
{"smiles": "Cc1ccc2c(C(=O)CN3CCN(c4ccccc4)CC3)c(C)[nH]c2c1", "Potency": "inconclusive: 14.1 µM [inhibitor, partial curve, poor fit]"}
{"smiles": "COc1ccc(N/C(=C(/C(Cl)=C(Cl)Cl)[N+](=O)[O-])n2nnc3ccccc32)cc1OC", "Potency": "active: 14.1 µM"}
{"smiles": "O=C1OC(c2ccccc2)=NC12CC2c1ccc(Cl)cc1", "note": "(stereo not drawn)", "Potency": "inconclusive: 14.1 µM [inhibitor, partial curve]"}
{"smiles": "CCC(c1nnnn1CCOC)N1CCN(c2nc3ccccc3s2)CC1", "note": "(stereo not drawn)", "activity, negative = inhibition": "inactive: -4.07%"}
{"smiles": "Cc1cc(=O)n(Cc2cccc(Cl)c2)c2c1c(C)nn2C", "Potency": "inconclusive: 31.6 µM [inhibitor, single point]"}
{"smiles": "Cc1ccccc1OCCCC(=O)NCc1ccco1", "activity, negative = inhibition": "inactive: -1.55%"}
{"smiles": "Cc1cc(=O)oc2cc(OCC(=O)N/N=C/c3cc([N+](=O)[O-])ccc3O)ccc12", "Potency": "active: 3.55 µM"}
{"smiles": "COc1ccc(-c2cc(=O)n(CCC#N)[nH]2)cc1", "Potency": "inconclusive: 0.891 µM [inhibitor, full curve]"}
{"smiles": "O=C(CN1CCN(S(=O)(=O)c2ccc3ccccc3c2)CC1)N1CCc2ccccc2C1", "Potency": "inconclusive: 35.5 µM [inhibitor, single point]"}
{"smiles": "O=C(COc1ccc([N+](=O)[O-])cc1Cl)NCC1CCCO1", "note": "(stereo not drawn)", "activity, negative = inhibition": "inactive: -12.3%"}
{"smiles": "COC(=O)NC(CCc1ccccc1)C(C(=O)OC)C(=O)OC", "note": "(stereo not drawn)", "activity, negative = inhibition": "inactive: 7%"}
{"smiles": "O=C(CSc1nc2c(sc3ccccc32)c(=O)n1CCCN1CCCC1)NCc1ccco1", "Potency": "inconclusive: 31.6 µM [inhibitor, partial curve]"}
{"smiles": "CCOC(=O)N1CCN(S(=O)(=O)c2ccc([N+](=O)[O-])cc2)CC1", "activity, negative = inhibition": "inactive: -0.711%"}
{"smiles": "Cc1ccc(NC(=O)NC2=NN(c3ccccc3)C(=O)/C2=C2/CCCN2C)cc1", "Potency": "inconclusive: 25.1 µM [inhibitor, single point]"}
{"smiles": "Cc1cc(Nc2cccc(C(F)(F)F)c2)nc2ccc(NC(=O)Cc3ccc(Cl)cc3)cc12", "Potency": "inconclusive: 17.8 µM [inhibitor, partial curve]"}
{"smiles": "Cc1ccc(C)n1-c1ccc(N2CCOCC2)cc1", "Potency": "active: 8.91 µM"}
{"smiles": "COc1cccc(CNC(=O)N2CCc3c(sc4c3CCCC4)C2c2ccc(F)cc2)c1", "note": "(stereo not drawn)", "activity, negative = inhibition": "inactive: -4.38%"}
{"smiles": "COC(=O)c1cncc(C)c1", "activity, negative = inhibition": "inactive: -5.65%"}
{"smiles": "COc1ccc2c(c1)c(C(O)CN1CCC(Cc3ccccc3)CC1)c(C)n2C", "note": "(stereo not drawn)", "Potency": "inconclusive: 31.6 µM [inhibitor, partial curve]"}
{"smiles": "CCCCNC(=S)N1CCn2cccc2C1c1ccc(F)cc1", "note": "(stereo not drawn)", "activity, negative = inhibition": "inactive: -8.35%"}
{"smiles": "CC(C)COc1ccc(/C(=N/O)c2ccccc2)cc1", "Potency": "inconclusive: 28.2 µM [inhibitor, single point]"}
{"smiles": "CC(C)c1ccc2c(c1)NC(c1ccc(F)cc1)=NC(c1cccs1)=N2", "Potency": "inconclusive: 25.1 µM [inhibitor, single point]"}
{"smiles": "O=C(CNc1ccc2ccccc2c1)N/N=C/c1ccccn1", "Potency": "inconclusive: 14.1 µM [inhibitor, partial curve]"}
{"smiles": "Clc1cccc(CN2COc3c(cc(Cl)c4cccnc34)C2)c1", "Potency": "inconclusive: 31.6 µM [inhibitor, single point]"}
{"smiles": "Cc1ccc(NC(=O)Nc2nnc(SCC(=O)N3CCCCC3)s2)cc1", "activity, negative = inhibition": "inactive: -1.54%"}
{"smiles": "CC(C)c1ccc2[nH]c(O)c(N=NC(=O)c3cccc(S(=O)(=O)N4CCCCC4)c3)c2c1", "Potency": "inconclusive: 14.1 µM [inhibitor, partial curve]"}
{"smiles": "COc1ccc(N2CCN(Cc3cc(OC)c(O)c([N+](=O)[O-])c3)CC2)cc1", "Potency": "inconclusive: 25.1 µM [inhibitor, single point]"}
{"smiles": "O=C1C2CCCCC2C(=O)N1c1ccc(NC2CCN(Cc3ccccc3)CC2)c([N+](=O)[O-])c1", "note": "(stereo not drawn)", "Potency": "inconclusive: 25.1 µM [inhibitor, single point]"}
{"smiles": "Oc1ccccc1-c1nc2cnccn2c1Nc1ccc2c(c1)OCCO2", "Potency": "inconclusive: 28.2 µM [inhibitor, partial curve, poor fit]"}
{"smiles": "Cc1ccc(OCC(=O)Nc2nnc(S(=O)(=O)N3CCc4ccccc43)s2)cc1", "Potency": "inconclusive: 11.2 µM [inhibitor, partial curve]"}
{"smiles": "Cc1ccc(-n2ncc3c(Nc4ccc(Oc5ccccc5)cc4)ncnc32)c(C)c1", "Potency": "inconclusive: 6.31 µM [inhibitor, partial curve, poor fit]"}
{"smiles": "COc1ccc(N2CCC(CNS(=O)(=O)c3cccc(C(F)(F)F)c3)C2)cc1", "note": "(stereo not drawn)", "Potency": "inconclusive: 12.6 µM [inhibitor, partial curve]"}
{"smiles": "CCOC(=O)c1ccccc1NC(=O)c1cn(CC(C)C)c(=O)c2cc(OC)c(OC)cc12", "Potency": "inconclusive: 17.8 µM [inhibitor, single point]"}
{"smiles": "Cc1cnc(CN2CCCC(C(=O)c3ccc4c5c(cccc35)CC4)C2)[nH]1", "note": "(stereo not drawn)", "Potency": "inconclusive: 12.6 µM [inhibitor, partial curve, poor fit]"}
{"smiles": "[O-]/C(=C(\\C(=S)Nc1cccc2ccccc12)[n+]1ccccc1)c1ccc2c(c1)OCCO2", "Potency": "active: 12.6 µM"}
{"smiles": "COc1cc(/C=N/N=C(/N)c2nonc2N)cc(Br)c1OCc1cccc(C)c1", "Potency": "inconclusive: 0.0501 µM [inhibitor, full curve]"}
{"smiles": "COc1ccc(Cl)cc1NC(=O)CSc1nc(=O)n(Cc2ccco2)c2c1CCC2", "Potency": "inconclusive: 28.2 µM [inhibitor, single point]"}
{"smiles": "O=C(c1ccco1)N1CCN(c2ccc([N+](=O)[O-])cc2Cl)CC1", "Potency": "inconclusive: 11.2 µM [inhibitor, partial curve]"}
{"smiles": "O=C(Nc1cccc(-c2csc(Nc3ccc(Cl)cc3)n2)c1)c1cccc(C(F)(F)F)c1", "Potency": "active: 12.6 µM"}
{"smiles": "Cc1ccc(N2C(=O)CS/C2=C(\\C(Cl)=C(Cl)Cl)[N+](=O)[O-])cc1", "Potency": "active: 25.1 µM"}
{"smiles": "COc1ccc(-c2nnc(CSc3nc4ccccc4c(=O)n3CC3CCCO3)o2)cc1OC", "note": "(stereo not drawn)", "Potency": "inconclusive: 12.6 µM [inhibitor, partial curve, poor fit]"}
{"smiles": "CCc1nnc(N/N=C/c2cccs2)n1N", "Potency": "inconclusive: 25.1 µM [inhibitor, single point]"}
{"smiles": "CCN(CC)C(=O)Cn1nnc(-c2ccc(S(C)(=O)=O)cc2)n1", "activity, negative = inhibition": "inactive: -0.754%"}
{"smiles": "CCOc1ccc(CNC(=O)c2ccc3c(Cl)c4c(nc3c2)CCCC4)cc1", "activity, negative = inhibition": "inactive: -13%"}
{"smiles": "O=C(CCl)Nc1cc(-c2ccccc2)nn1-c1ccccc1", "Potency": "inconclusive: 39.8 µM [inhibitor, single point]"}
{"smiles": "Cc1ccc(S(=O)(=O)Nc2ccccc2CNc2c(C)n(C)n(-c3ccccc3)c2=O)cc1", "Potency": "inconclusive: 35.5 µM [inhibitor, single point]"}
{"smiles": "COc1ccc(C)cc1NC(=O)c1ccc2c(c1)OCO2", "Potency": "inconclusive: 44.7 µM [inhibitor, single point]"}
{"smiles": "CN(C)C(=S)Nc1ccc2c(c1)OCO2", "Potency": "inconclusive: 39.8 µM [inhibitor, single point]"}
{"smiles": "O=C1/C(=C\\c2cccs2)SC(=S)N1C1CCS(=O)(=O)C1", "note": "(stereo not drawn)", "Potency": "inconclusive: 17.8 µM [inhibitor, partial curve]"}
{"smiles": "COC(=O)c1cccc(Cn2nc(C)c([N+](=O)[O-])c2C)c1", "activity, negative = inhibition": "inactive: -5.87%"}
{"smiles": "COc1ccc(CCCc2nnc(SCC(=O)Nc3cc(F)ccc3C)o2)cc1", "Potency": "inconclusive: 20 µM [inhibitor, single point]"}
{"smiles": "CC[C@@H](C)CN1C(=O)N[C@@H](c2ccccc2)C(C(=O)OC)=C1C", "activity, negative = inhibition": "inactive: 0.635% [at 11.5 µM]"}
{"smiles": "CCc1c2c(nc3ccc(OC)cc13)COC2", "Potency": "inconclusive: 44.7 µM [inhibitor, single point]"}
{"smiles": "CCc1ccc2oc(-c3cc(N=Cc4cccc(OC)c4O)ccc3O)nc2c1", "Potency": "active: 14.1 µM"}
{"smiles": "CN[C@@H]1[C@H](O[C@@H]2O[C@H](C)[C@@](O)(CO)[C@H]2O[C@H]2[C@H](O)[C@H](O)[C@H](N=C(N)N)[C@@H](O)[C@@H]2N=C(N)N)O[C@@H](CO)[C@H](O)[C@H]1O", "Potency": "inconclusive: 35.5 µM [inhibitor, single point]"}
